Experimental data published in PubChem BioAssay AID1508623 (National Center for Advancing Translational Sciences (NCATS), 2021).
The campaign covered roughly 48,000 compounds. About 450 (0.94%) were called active. Inconclusive results (about 19%) are left out. Calls follow the shape of the dose curve; as a rule, active = well fitted inhibition curve with a large enough effect; inconclusive = small, poorly fitted or top-dose-only effect; inactive = no such curve, though single readings can be large or run the other way. The list shows a part of the results.

Experiment: Primary qHTS for Identification of Small Molecule Inhibitors of Huntingtin Promoter Activity; also: nearly all actives have a fitted effect of over 50% in size
Conditions: HEK293 HTT promoter firefly luciferase reporter (activity 0% = vehicle and -100% = no light), 24 h; series mostly up to 57.5 µM; activity change, negative = inhibition: at the top concentration
Source text: Assay Provider: Russell L. Margolis M.D.
Department Neurology, Johns Hopkins University School of Medicine, Baltimore, MD
Huntington's Disease (HD) is a neurodegenerative disorder caused by a CAG repeat expansion in exon 1 of huntingtin (HTT). While there are currently no disease-modifying treatments for HD, recent efforts have focused on development of nucleotide-based therapeutics to lower HTT expression. As an alternative to siRNA or oligonucleotide methods, we hypothesized that suppression of HTT expression might be accomplished by small molecules that either (1) directly decrease HTT expression by suppressing HTT promoter activity or (2) indirectly decrease HTT expression by increasing the promoter activity of HTT-AS, the gene antisense to HTT that appears to inhibit expression of HTT.
We developed and employed a high throughput screen for modifiers of HTT and HTT-AS promoter activity using luminescent reporter HEK293 cells; of the 52,041 compounds tested, we identified 898 replicable hits. We used a rigorous stepwise approach to assess compound toxicity and the capacity of the compounds to specifically lower huntingtin protein in 5 different cell lines, including HEK293 cells, HD lymphoblastoid cells, mouse primary neurons, HD iPSCs differentiated into cortical-like neurons, and HD hESCs. We found no compounds which were able to lower huntingtin without lowering cell viability in all assays, though the potential efficacy of a few compounds at non-toxic doses could not be excluded.
SEQUENCE No. (1, 2, 3, etc.); […] (e.g., Cells, Incubation, Reagent, etc.); VALUE and DESCRIPTION.
1; Reagent; 4 uL; 2,500 Hek293 luciferase reporter cells per wells
3; Compound; 23 nL; Control inhibitor / compound library
5; Reagent; 2.5 uL; Firefly Luc reagent; Dual-Glo Luciferase Reporter Assay System (Promega)
6; Time; 10 min; room temperature incubation
7; Detection; Luminescence; FLuc
NOTES (numbers refer to sequence above)
1; High-throughput screening, measuring luminescence from a Hek293 luciferase reporter, was performed in 1,536 well white-walled tissue-culture treated plates. 2,500 cells were plated in 4 µL of Opti-MEM per well using a Multidrop Combi Reagent Dispenser (ThermoFisher).
2; Assay plates were cultured for 24 hours.
3; Control inhibitor (PTC124; final concentration of 50 uM) and compound library (at final concentrations of 460 nM - 57.5 uM) were added to the assay plate using the Kalypsis Pintool Robotic System equipped with 1536 pinheads.
4; Cells were then incubated for 24 hours at 37 degrees C prior to luminescence measurements.
5; In all cases, luminescence was measured using the Dual-Glo Luciferase Reporter Assay System (Promega) following the manufacturer's instructions.
6; Room temperature incubation.
7; Luminescence signal was obtained using the PerkinElmer ViewLux plate reader. Results were normalized to vehicle control (0% activity) and zero RLU (-100% activity).

Activity change, negative = inhibition, inactive:
CCc1nnc(SCc2nc(-c3ccccc3F)oc2C)c2cc3sccc3n12 -1.72%
Cc1cccc(-c2noc(-c3ccc(NC4CCCC4)c([N+](=O)[O-])c3)n2)c1 10.3%
Cc1ccc(OCC(=O)Nc2cccc(C(=O)OCc3cc(=O)n4cc(C)sc4n3)c2)cc1 -19.5%
O=C(CC1N=C2c3ccccc3N=C(SCc3cccc(Cl)c3)N2C1=O)NC1CCCCC1 (stereo not given) -11.4%
COc1cc(OC)c(NC(=O)c2nc(-c3ccncc3)no2)cc1Cl 22.7%
COc1ccc(NC(=O)CSc2nnc(-c3nnn(-c4ccc(F)cc4)c3C)o2)cc1 11.3%
CCCCCNC(=O)C1CCC(Cn2c(=O)c3sccc3n(CC(=O)N3CCCC3)c2=O)CC1 (stereo not given) 13.7%
Cn1c(=NC(=O)c2ccc(F)cc2)sc2cc(Br)ccc21 61.5%
CCOCN(C(=O)Cn1c(C)nc2ccccc21)c1c(C)cccc1CC -7.96%
Cc1ccc(Cl)cc1-n1c(=O)cc(N2CCN(c3ccccc3)CC2)[nH]c1=O -14.5%
Cc1cc2n(n1)CCCN2C(=O)Nc1ccccc1F 4.64%
CCc1ccccc1NC(=O)CC(C)n1nc(C)cc1C (stereo not given) 2.08%
CCCCCC[C@@H](CCC)C(=O)O -6.51%
Cc1ccc(N2C(=O)c3n[nH]c(C)c3C2c2ccc(C(C)C)cc2)cc1 (stereo not given) 4.74%
COc1cccc(C(=O)Nc2ccccc2-c2nc(-c3ccc(C)cc3)no2)c1 31.6%
CCOC(=O)c1c(S(=O)(=O)N2CCN(c3ccccc3OC)CC2)c(C)n(C)c1C -18.9% [at 11.5 µM]
CC(=O)c1cccc(NC(=O)c2sc3nc4c(cc3c2N)CCCC4)c1 15.9%
COc1cc(OC)c(NC(=O)NCc2ccc3c(c2)CCN3C(C)=O)cc1Cl -37.3%
COc1cc2c(cc1OC)C(=O)C(CC1CCN(Cc3ccccc3)CC1)C2 (stereo not given) -0.211%
O=c1c2cc3c(cc2n(Cc2cccc(F)c2)c(=O)n1Cc1nc(-c2ccccc2)no1)OCO3 -10.3%
CCCCC(CC)CN1CN(CC(CC)CCCC)CC(C)(N)C1 (stereo not given) -0.716%
CCOc1ccc(NC(=O)C2CCCN(c3nnc(-n4c(C)ccc4C)s3)C2)cc1 (stereo not given) -13.1%
CCc1ccc(NCc2cc3ccc(OC)cc3n(CC(=O)Nc3cccc(Cl)c3C)c2=O)cc1 -10.6%
Cc1cccn2c(=O)c(C(=O)NCCc3ccc(Cl)cc3)cnc12 41.5%
CC(=O)c1ccc(NC(=O)C2CCC(CNS(=O)(=O)c3cccc4nsnc34)CC2)cc1 (stereo not given) -0.0802% [at 11.5 µM]
CC(C)(C)OC(=O)N1CCC(c2c(C(=O)N3CCN(C(=O)c4ccco4)CC3)cnn2-c2ccc(Cl)cc2)CC1 4.79%
CCCNS(=O)(=O)c1cc(-c2nnc3c4ccccc4c(C)nn23)ccc1OC 7.26%
Cc1ccc(C(=O)NCc2nnnn2-c2ccc(C)c(C)c2)cc1 -10.6%
CCCCCCn1c(=O)c2c(ncn2C)n(C)c1=O 8.7%
COc1ccccc1NC(=O)c1oc2ccccc2c1NC(=O)c1ccccc1C(F)(F)F 5.41%
CCOc1ccccc1NC(=O)C(C)Sc1nc(-c2ccccc2)c(C#N)c(=O)[nH]1 (stereo not given) -19.6%
CCc1cccc(NC(=O)c2cnc(SC)nc2-c2ccccc2)c1 -18.8%
Cc1nc2sc(C(=O)Nc3ccc(F)cc3)c(N)c2c(-c2ccc(Br)cc2)c1C(=O)Nc1ccc(Cl)cc1 -10.6%
CCOc1ccc(/C=C/c2nc(C#N)c(NC(C)CC)o2)cc1 (stereo not given) -11.1%
Cc1cc2nc(-c3ccc(OCc4ccc(F)cc4)cc3)cc(C(F)(F)F)n2n1 -3.58%
Cc1ccc(C)c(Cn2c(=O)n(Cc3ccc4c(c3)OCO4)c(=O)c3oc4ccccc4c32)c1 -5.83%
O=C(Nc1ccc(NC(=O)c2cccs2)cc1)c1cccc(Br)c1 21.9%
CCOc1ccc(Sc2cc(C(=O)NC(C)CC)c3ccccc3n2)cc1 (stereo not given) -14.4%
COc1ccc(N2CCN(S(=O)(=O)c3ccc(OC)c(-c4noc(C)n4)c3)CC2)cc1 4.63%
O=C(Cn1ncc2c3ccccc3n(Cc3ccc(Cl)cc3)c2c1=O)NCc1cccs1 -16.4%
O=c1cc(-c2ccc(F)cc2)nc(SCc2nc(-c3cccc(Cl)c3)no2)[nH]1 1.75%
Cc1cc(NC(=O)CSc2nc3c([nH]c4ccccc43)c(=O)n2-c2ccccc2)no1 -12.5%
O=C(C1CCCN(S(=O)(=O)c2ccc(Br)s2)C1)N1CCN(c2ccc(F)cc2)CC1 (stereo not given) -6.63%
Cc1ccc(C2CC(=O)N(Cc3ccccc3)c3c2c(C)nn3-c2nc(C)cc(C)n2)cc1 (stereo not given) -19.8%
Cc1ccc2c(=O)cc(C(=O)Nc3sc4c(c3C(N)=O)CCCC4)oc2c1 -11.5% [at 11.5 µM]
O=C(C1CCN(S(=O)(=O)Cc2ccccc2)CC1)N1CCN(c2ccc(F)cc2)CC1 -29.8%
COc1ccc(C2C(=O)N(C3CCCCC3)CC(=O)N2CCc2ccc(OC)c(OC)c2)cc1 (stereo not given) -8.41%
Cc1ccc(C)c(CN2C(=O)C3(c4ccccc42)N(c2cccc(C(F)(F)F)c2)C(=O)CS3(=O)=O)c1 (stereo not given) -28.2%
Cc1ccc2oc(-c3cc(NC(=O)c4ccc5c(c4)OCCO5)cc(C)c3O)nc2c1 -11.9%
COc1cc(NC(=O)c2nc3ccccc3nc2C)cc(OC)c1OC 8.91%
CCC(C(=O)N1CCN(c2ccccc2F)CC1)n1nc(C)c2sc3ccccc3c2c1=O (stereo not given) -12.2%
COc1cc(CN(C(=O)c2cccc(Cl)c2)c2ccccn2)cc(OC)c1OC -33.9%
Cc1ccc(Cl)cc1N1CCN(C(=O)c2cccn3c(=O)c4cc(Cl)ccc4nc23)CC1 0%
Cc1ccc(-n2nc(C(=O)Nc3ccc(Cl)cn3)c3c4ccccc4n(C)c3c2=O)cc1 -6.37%
COc1ccc(NC(=O)CSc2nc(-c3ccco3)cc(C(F)(F)F)n2)c(OC)c1 0.877%
CCCc1nn2c(=O)cc(COc3ccc(/C=C(\C#N)C(=O)Nc4ccc(F)cc4)cc3)nc2s1 -8.18%
CCN(CC)C(=O)Cn1c(SCCOc2ccc(Cl)cc2)nc2ccccc21 -18.4%
O=C(CCS(=O)(=O)c1cc2c(cc1Cl)NC(=O)CO2)NCCc1ccc(Cl)cc1 -6.32%
CC(=O)N1c2ccccc2C(=O)C1N1CCN(c2ccc(F)cc2)CC1 (stereo not given) -24.3%
COc1ccc(NC(=O)c2ccc(CNS(=O)(=O)c3ccc4c(c3)C(C)(C)C(=O)N4C)cc2)cc1 -19.5%
O=C(Nc1ccc2c(c1)N(C1CCCC1)C(=O)c1ccccc1S2)c1cccc(F)c1 -18.3%
CC(C)Oc1ccc(CNC(=O)CCn2c(=O)c3cccn3c3ccc(F)cc32)cc1 -7.82%
COc1cccc(-n2c(=O)c3c(C)c(C(=O)N(C)C)sc3n(CC(=O)Nc3ccc(C)cc3Cl)c2=O)c1 -8.54%
COc1cccc(CNC(=O)C2CCCN(c3ncnc4onc(-c5ccc(F)cc5)c34)C2)c1 (stereo not given) -6.28%
CC(C)OCCCNC(=O)CN1C(=O)CSc2ccc(S(=O)(=O)N3CCCCC3)cc21 -10.3%
Cc1ccc(Cl)cc1NCc1nnc2n1CCCCC2 -8.32%
O=C1CC(c2nc(-c3cccc(Cl)c3)no2)CN1c1ccc2c(c1)OCCO2 (stereo not given) -29.8%
Cc1n[nH]c(C)c1S(=O)(=O)N(CC(=O)NCc1ccccc1Cl)c1ccc(C(C)C)cc1 -23.8%
Cc1ccc(-n2nnnc2C2CCN(S(=O)(=O)c3ccc(OC(F)(F)F)cc3)CC2)cc1 -8.25%
CCN(C(=O)Cn1c(=O)oc2cc(S(=O)(=O)N3CCCC3)ccc21)c1cccc(C)c1 -23.2%
CCOc1ccc(CCNC(=O)c2c(C)oc3ncnc(N4CCOCC4)c23)cc1 -13.7%
Cc1cc(C)cc(NC(=O)CN(C)S(=O)(=O)c2ccc3[nH]c4c(c3c2)CCCC4)c1 -18.6%
COCCCNC(=O)CSc1nc2ccccc2c(=O)n1Cc1ccco1 5.29%
CCOc1cccc(CNc2ccc(O)cc2)c1OCc1ccccc1Cl -22%
COc1ccc(CNC(=O)c2ccc3[nH]c(C)c(C)c3c2)c(OC)c1 -4.39%
COc1ccc(C(=O)Nc2ccc(OCc3cc(=O)n4ccccc4n3)cc2)cc1 7.58%
CCc1nnc2c(NCCc3ccc(OC)c(OC)c3)nc3ccccc3n12 -4.66%
Cc1ccc(C)c(N2CCN(C(=O)CCS(=O)(=O)c3ccc4c(c3)CC(=O)N4C)CC2)c1 -92.9%
CCN(CC)CCOC(=O)C(c1ccccc1)C1CCCCC1 (stereo not given) -6.13%
COc1cccc(C2CC(=O)Nc3c2c(=O)n(C)c2ncnn32)c1OC (stereo not given) -3.05%
COC(=O)c1c(NC(=O)COc2cc(C)c(Cl)c(C)c2)sc2c1CCCC2 -2.92%
COc1ccc(OC)c(S(=O)(=O)Nc2cc3c(C(C)=O)c(C)oc3c3ccccc23)c1 -28.1%
COc1ccc(-c2nnc(SCC(=O)Nc3ccc(C(C)=O)cc3)nc2-c2ccc(OC)cc2)cc1 6.17%
Cc1ccc(OCC(=O)N(Cc2ccco2)C2CCS(=O)(=O)C2)cc1 (stereo not given) -1.83%
CC(Oc1ccc(F)cc1)C(=O)Nc1cc(-c2ccc(F)c(F)c2)no1 (stereo not given) -6.37%
Cc1cccc(OCC(=O)Nc2ccc(-c3nc4cc(C)ccc4o3)c(O)c2)c1 110%
CCC1CN(C(=O)N2CCC(C(=O)NCCC3=CCCCC3)CC2)c2cc(C)ccc2O1 (stereo not given) -7.49%
CCn1cc2nc(SCc3ccc(C)cc3)n(CCc3ccccc3)c(=O)c2n1 -13.4%
COc1ccc(S(=O)(=O)N(CC(=O)N(C)Cc2ccccc2)c2ccc(Cl)cc2)cc1 -21.1%
Cc1ccc(OCC(=O)Nc2ccc(Cl)c(-c3nc4ccccc4[nH]3)c2)cc1C -21.1%
COc1ccc(NC(=O)CSc2nnc(NC(=O)Nc3ccccc3)s2)c(OC)c1 -1.81%
COc1cc(Cc2cnc(N)nc2N)cc(OC)c1OC -1.65%
CCc1ccc(NC(=O)CSc2nc3ccccc3nc2Cc2ccccc2OC)cc1 -0.612%
Cc1cc(C)cc(NC(=O)N2CCN3CCCCC3C2)c1 (stereo not given) 11.6%
CC(C)(C)c1ccc(C(=O)NC(Cc2c[nH]c3ccccc23)C(=O)OCC(=O)c2ccccc2)cc1 (stereo not given) 5.72%
